In PubChem BioAssay AID488969 (Vanderbilt High Throughput Screening Facility, 2010):
Over roughly 110,000 compounds, “z-score” has its median near -0.1; the highest 2% begin near 2. The list shows a part of the results. Activity calls are given as the source filed them.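 The calls were made as follows: active = z-score in the third read window above 3 or below -3; inactive = the rest.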

Each compound was assayed against Metabotropic glutamate receptor 8 (Rattus norvegicus) (UniProt P70579) (assay: mGluR8 Gi/Go-coupled signaling modulation – cell-based, rat, thallium flux, HTS, primary screen (AID 488969)). Conditions: HEK293 rat mGluR8, GIRK (G protein-gated inwardly rectifying potassium channel) thallium flux, FluoZin2; at 10 µM; stronger effect = higher value; submaximal glutamate (EC20) added with thallium.
Sequence of UniProt P70579 (P70579 whole entry, looked up): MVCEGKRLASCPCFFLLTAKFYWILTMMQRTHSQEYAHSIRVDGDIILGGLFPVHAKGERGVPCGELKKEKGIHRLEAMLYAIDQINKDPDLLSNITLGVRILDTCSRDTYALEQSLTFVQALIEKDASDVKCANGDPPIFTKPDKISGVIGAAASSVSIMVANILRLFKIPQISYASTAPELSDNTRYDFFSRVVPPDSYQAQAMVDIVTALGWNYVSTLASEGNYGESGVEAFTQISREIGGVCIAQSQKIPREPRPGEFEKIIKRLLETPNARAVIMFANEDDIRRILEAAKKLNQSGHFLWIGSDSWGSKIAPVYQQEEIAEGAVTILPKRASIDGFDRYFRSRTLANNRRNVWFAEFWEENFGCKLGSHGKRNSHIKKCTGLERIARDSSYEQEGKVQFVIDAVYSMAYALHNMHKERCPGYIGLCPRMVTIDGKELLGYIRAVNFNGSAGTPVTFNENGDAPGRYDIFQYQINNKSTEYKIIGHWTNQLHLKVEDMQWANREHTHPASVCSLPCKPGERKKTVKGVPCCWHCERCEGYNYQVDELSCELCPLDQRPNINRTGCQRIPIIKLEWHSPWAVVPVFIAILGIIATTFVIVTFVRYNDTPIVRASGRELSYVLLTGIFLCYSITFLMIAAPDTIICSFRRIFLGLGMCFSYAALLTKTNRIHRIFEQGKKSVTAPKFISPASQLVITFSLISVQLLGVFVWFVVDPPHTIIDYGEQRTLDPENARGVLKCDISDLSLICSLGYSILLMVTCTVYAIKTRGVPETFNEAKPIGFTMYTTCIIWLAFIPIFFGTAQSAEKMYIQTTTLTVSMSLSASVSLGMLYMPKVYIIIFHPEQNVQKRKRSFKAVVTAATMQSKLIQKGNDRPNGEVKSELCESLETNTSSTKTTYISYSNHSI

| SMILES | z-score |
| --- | --- |
| COc1ccc(Oc2c(Cl)cnn(-c3ccc(Cl)c(Cl)c3)c2=O)cc1 | -0.379 |
| CCS(CC)=NS(=O)(=O)c1ccc(NC(C)=O)cc1 | -0.155 |
| CCOC(=O)Cn1c(=O)oc2cc(S(=O)(=O)NCCC(C)C)ccc21 | -0.204 |
| O=C(O)c1cc(=O)cc(C(=O)O)[nH]1 | 0.06 |
| N#C/C(=C\c1cccc([N+](=O)[O-])c1)c1nnc2n1CCCCC2 | -1.66 |
| O=C(COc1ccccc1Cl)NCCc1ccc2c(c1)OCCO2 | -0.272 |
| COC(=O)CCCc1nc2ccccc2s1 | -0.393 |
| Cc1cc(NC(=O)Cn2cnc3sc(C)c(-c4ccccc4)c3c2=O)no1 | -0.368 |
| C=CCn1c(SCC(=O)Nc2nc(C)cs2)nnc1C(CO)NC(=O)c1ccccc1 (stereo unspecified) | 0.435 |
| Cc1ccc(N2C(=O)[C@@H]3[C@H](C2=O)C2c4ccccc4C=CN2[C@@H]3C(=O)c2ccco2)cc1 (stereo partly specified) | -0.0364 |
| C#CCn1cc(C=C2C(=O)c3ccccc3C2=O)c2ccccc21 | -0.45 |
| Cc1ccc(S(=O)(=O)/N=C2\C(=O)c3ccccc3C([O-])=C2n2cc[n+](CCC(C)C)c2)cc1 | -0.914 |
| C=CCn1cnc2scc(-c3ccc(C)cc3)c2c1=O | -0.991 |
| CCOc1ccc(/C=N/NC(=O)c2ccc(CSc3nc4ccccc4[nH]3)cc2)cc1 | -0.0306 |
| CCOCCCNC(=O)C1CCN(S(=O)(=O)N2CCCCC2)CC1 | -0.0455 |
| CCN1CCCC1CNC(=O)C1c2ccccc2C(=O)N(CCOC)C1c1ccc(F)cc1 (stereo unspecified) | -0.425 |
| CCNC(=O)NC(C(=O)OC)C12CC3CC(CC(C3)C1)C2 (stereo unspecified) | 0.104 |
| C=CCN1C(=O)/C(=C\c2ccc(Cl)cc2)N=C1SCC(=O)NCCC | -1.09 |
| Cc1ccc(NC(=O)C2Cc3ccccc3CN2C(=O)c2ccccc2)cc1Cl (stereo unspecified) | -0.147 |
| CSc1ccc(S(=O)(=O)Nc2c(C)cccc2C)cc1 | -0.155 |
| Cn1c(NNC(=O)c2ccc(C(C)(C)C)cc2)cc(=O)n(C)c1=O | -0.0623 |
| Cc1cc(N2CCN(C(c3ccccc3)c3ccccc3)CC2)n2ncnc2n1 | -0.234 |

| SMILES | z-score |
| --- | --- |
| Cc1ccc(S(=O)(=O)N(CC(=O)N2CCCC2)C2CCCCC2)cc1 | -0.771 |
| CC(C)C(NC(=O)OCc1ccccc1)C(=O)OCC(=O)NCc1ccco1 (stereo unspecified) | -0.533 |
| O=C(OCc1cc2ccccc2[nH]c1=O)c1ccccn1 | 1.93 |
| COc1ccccc1OCCC(=O)OCC(=O)Nc1cccc(Br)c1 | 0.0343 |
| CN(Cc1ccccc1)C(=O)c1cccc(NC(=O)c2ccco2)c1 | -1.4 |
| CCNC(=S)N1CCNC(=O)C1CC(=O)OC (stereo unspecified) | 0.191 |
| COC(=O)c1sc2ncn(-n3c(C)ccc3C)c(=O)c2c1C | -1.04 |
| O=C(c1ccccc1Sc1cccc2ccccc12)N1CCOCC1 | -0.326 |
| CSc1ccc(Cl)c(C(=O)NCCOc2cc(C(C)C)ccc2C)c1 | 1.16 |
| CCN(C(=O)c1ccc(S(C)(=O)=O)cc1)C12CC3CC(CC(C3)C1)C2 | 0.118 |
| Cc1ccc(C(c2nnnn2C2CCCC2)N2CCN(c3nc4ccccc4s3)CC2)cc1 (stereo unspecified) | -0.351 |
| O=C(OCc1nc(-c2ccccc2)oc1COC(=O)c1ccco1)c1ccco1 | -0.0571 |
| COc1cc(C)nc(N2CCCC(C(=O)Nc3cc(Cl)ccc3OC)C2)n1 (stereo unspecified) | -0.666 |
| CN1CCN(S(=O)(=O)c2ccc3c4c(cccc24)C(=O)N3)CC1 | -0.000659 |
| CC(=O)N1CCC(=NNS(=O)(=O)c2cccc([N+](=O)[O-])c2)CC1 | 0.187 |
| Cc1[nH]n(-c2ccccc2)c(=O)c1N=Nc1cccc(S(=O)(=O)N2CCOCC2)c1 | 0.327 |
| COc1ccc(C(=O)n2nc(-c3ccccc3)nc2N)cc1OC | -0.577 |
| N#C/C(C(=O)N1CCOCC1)=C1/SC(Cc2ccccc2)C(=O)N1c1ccccc1 (stereo unspecified) | 0.437 |
| Cc1ccc(OS(=O)Nc2cccc3nccnc23)cc1 (stereo unspecified) | 0.149 |
| COc1ccccc1NC(=O)c1ccc(SCC(=O)NCc2ccccc2Cl)c([N+](=O)[O-])c1 | -0.169 |
| COc1ccc(-c2cc3nc4n(c(=O)c3s2)CCC4)cc1 | 0.715 |
| CCC(C)[C@H](NC(=O)NCc1cccs1)C(=O)OC (stereo partly specified) | -0.445 |

| SMILES | z-score |
| --- | --- |
| COc1ccc(CCNC(=O)COc2ccc(-c3ccc(C)cc3)cc2)cc1OC | -0.117 |
| O=C(NNC(=S)NC(=O)c1cccnc1)c1ccc(Cl)cc1 | 0.171 |
| CCOc1ccc(NC(=O)c2ccncc2)cc1 | 0.0505 |
| CC(C)N=C(Nc1ccccc1)c1cccnc1 | 0.0587 |
| CC(C)NC(=O)c1nc2ccccc2s1 | active: 3.05 |
| Cc1ccc(-n2c(C)cc(/C=N/Nc3ccc([N+](=O)[O-])cn3)c2C)c(C)c1 | -0.033 |
| CC(=O)Nc1ccccc1-c1nn[nH]n1 | -0.175 |
| O=C(Nn1cnnc1)C(Sc1ccccc1)c1ccccc1 (stereo unspecified) | -0.0096 |
| O=C(COc1ccccc1/C=C1/NC(=O)NC1=O)Nc1ccccc1 | 0.0997 |
| O=[N+]([O-])c1cc(C(F)(F)F)cc([N+](=O)[O-])c1N1CCN(S(=O)(=O)c2ccccc2)CC1 | -0.181 |
| CC(=O)Nc1ccc(C(=O)OCC(=O)Nc2ccc([N+](=O)[O-])cc2C(F)(F)F)cc1 | -0.321 |
| O=C(NC1CCCCC1)C(c1cccs1)N(C(=O)Cc1c[nH]c2ccccc12)c1ccc(F)cc1 (stereo unspecified) | 0.108 |
| Cc1ccc2oc(-c3cccc(NC(=O)c4ccc(Br)o4)c3C)nc2c1 | -0.242 |
| O=C(N/C(=C\c1cn(-c2ccccc2)nc1-c1ccc(Cl)cc1)C(=O)N1CCOCC1)c1ccccc1 | -0.0568 |
| CC(C)c1nnc(SCC(=O)Nc2ccc3c(c2)OCO3)n1C | -0.159 |
| COc1ccc2cnnc(SCC(=O)Nc3ccc(C(=O)O)cc3)c2c1OC | 0.0402 |
| CCC(C)NC(=O)CSc1nc2c(sc(=S)n2Cc2ccco2)c(=O)n1-c1ccccc1 (stereo unspecified) | 0.437 |
| Cc1cccnc1Nc1nc(-c2ccc(O)cc2O)cs1 | 0.0679 |
| CCOC(=O)c1cccc(NC(=O)N[C@@H](C)C(=O)OC)c1 | 0.116 |
| Cc1ccn2cc(CCNS(=O)(=O)c3ccc4c(c3)OCCO4)nc2c1 | -0.433 |
| CCn1c(SCC(=O)NCCc2ccc(Cl)cc2)nnc1-c1cccs1 | -0.84 |
| Cc1cc(=O)oc2c1ccc1oc(/C(=N/O)c3ccccc3)c(C)c12 | -0.065 |

| SMILES | z-score |
| --- | --- |
| COc1ccccc1NS(=O)(=O)c1ccc(C(=O)OCC(=O)NCc2ccco2)cc1 | -0.0327 |
| O=C(NNC1=C(C(=O)C(F)(F)F)CCC1)c1ccccc1O | -0.487 |
| O=C(N/N=C/c1ccc(F)c(F)c1)c1cc2c(s1)-c1ccccc1CC2 | 0.14 |
| COc1ccc(C2C(C#N)=C(N)OC3=C2C(=O)CC(C)(C)C3)cc1Cn1cc([N+](=O)[O-])cn1 (stereo unspecified) | -0.0568 |
| Cc1c(NC(=O)c2cnn3c2NC(c2ccco2)CC3C(F)(F)F)c(=O)n(-c2ccccc2)n1C (stereo unspecified) | -0.265 |
| Cc1ccc2c(C(=O)CN3CCC4(CC3)OCCO4)c(C)[nH]c2c1 | -0.0354 |
| COc1cc(/C=N/Nc2snc(SC)c2C#N)cc(OC)c1OC | -0.317 |
| O=C(C1CCCN(S(=O)(=O)Cc2ccccc2)C1)N1CCc2ccccc21 (stereo unspecified) | -0.0888 |
| COc1cc2c(=O)nc3n(c2cc1OC)C(c1ccccc1)N=C(N)N3 (stereo unspecified) | -0.235 |
| CCOc1ccc2nc3ccc4[nH]onc4c3c2c1 | -0.046 |
| COc1ccc(-c2cn3c4c(sc3n2)CCCC4)cc1 | 1.67 |
| O=C1CCCC2=C1C(c1ccccn1)Nc1ccc(C(=O)c3ccccc3)cc1N2 (stereo unspecified) | -0.181 |
| N#Cc1cccc(NC(=O)CSc2ccc3c4c(cccc24)C(=O)c2ccccc2-3)c1 | -0.0107 |
| CCCCCNC(=O)CC1Nc2c3ccccc3nc(=S)n2C1=O (stereo unspecified) | -0.0711 |
| Cc1cc(C)n(-c2ccc(C(=O)OCC(=O)Nc3ccc(Cl)c(S(=O)(=O)N(C)C)c3)cc2)n1 | active: 15.5 |
| Cc1cc(OCC(=O)c2ccc(F)cc2)ccc1N1C(=O)CCC1=O | -0.524 |
| COc1cc(C2NC(=O)NC(C)=C2C(=O)OCC2CCCO2)ccc1O (stereo unspecified) | 0.215 |
| CSCCC(NC(=O)C12CC3CC(CC(C3)C1)C2)C(=O)OCC(=O)c1ccccc1 (stereo unspecified) | -0.248 |
| O=C(N/N=C/c1ccc[nH]1)c1cccc([N+](=O)[O-])c1 | -0.104 |
| Cc1cc2ccccc2n2c(SCC(=O)Nc3ccc(S(=O)(=O)N4CCC(C)CC4)cc3)nnc12 | -2.15 |
| NNC(=O)c1nn(-c2ccc(Cl)cc2)ccc1=O | 0.102 |
| CC(C(=O)Nc1ccc(S(=O)(=O)N2CCCC2)cc1)N1CCN(C(=O)c2ccco2)CC1 (stereo unspecified) | -0.141 |

| SMILES | z-score |
| --- | --- |
| CCOC(=O)CNC(=O)CSc1nnnn1-c1cc(C)ccc1C | -0.31 |
| Cc1cc(C)nc(N2CCCC(C(=O)NCc3cccc(C(F)(F)F)c3)C2)n1 (stereo unspecified) | 0.115 |
| COc1ccc(C(=O)NNC(=O)c2ccccc2[N+](=O)[O-])cc1Br | -0.113 |
| CC(=O)Nc1ccc(S(=O)(=O)N2CCN(C(=O)c3cccnc3)CC2)cc1 | 0.0439 |
| COc1ccc(C(=O)CSc2nc(SC)ns2)cc1OC | -0.163 |
| COc1ccc(N(C)S(=O)(=O)c2cccc(C(=O)NCC3CCCO3)c2)cc1 (stereo unspecified) | 0.564 |
| COc1ccc(C(=O)NCC(C)(C)SCc2c(C)cc(C)cc2C)cc1 | 0.119 |
| Cn1cc(C(=O)N/N=C/C(Br)=C\c2ccccc2)ccc1=O | -0.0291 |
| COc1cccc(C(=O)/C=C/Nc2cc(C)ccc2O)c1 | 0.572 |
| Cc1ccc(OCC(=O)NCCO)cc1C | 0.0429 |
| Oc1ccccc1C(=S)N1CCCCCC1 | 0.672 |
| Cc1ccc(O)c(C(=O)c2cnc3onc(-c4ccc(F)cc4)c3c2)c1 | -0.451 |
| CCC(=O)N1CCN(c2nc(-c3ccc(Cl)cc3)cs2)CC1 | -0.503 |
| COc1ccccc1OCc1nnc(SCC(=O)N2CCCCC2)n1-c1ccccc1 | 1.31 |
| CCc1nnc(NC(=O)c2cc(S(=O)(=O)N3CCN(c4ccccc4)CC3)ccc2Cl)s1 | -0.438 |
| O=C(NC1CCCCCC1)C1CCN(S(=O)(=O)c2cccc3cccnc23)CC1 | -0.286 |
| N#Cc1c(NC(=O)c2cnccn2)sc2c1CCCC2 | -0.0643 |
| CC(NC(=O)C12CC3CC(C1)CC(n1cncn1)(C3)C2)C12CC3CC(CC(C3)C1)C2 (stereo unspecified) | -0.133 |
